Measurements published in PubChem BioAssay AID1468 (National Center for Advancing Translational Sciences (NCATS), 2008).
Among all 280,000 compounds or so, about 1,100 (0.39%) were called active. The inconclusive results got no clear call from the source; some entries with a clear call stand among them for comparison. The call rests on the fitted dose curve; in most records, active means well fitted inhibition curve with a large enough effect; inconclusive means small, poorly fitted or top-dose-only effect, or effect the other way; inactive means flat fitted curve, though single readings scatter. Potencies of inconclusive entries are left out as doubtful fits.

What follows are compounds tested against Microtubule-associated protein tau (Homo sapiens) (UniProt P10636) (assay: qHTS for Inhibitors of Tau Fibril Formation, Fluorescence Polarization). Conditions: K18 P301L tau heparin fibrillization, Alexa594 FP, 6 h; series mostly up to 57.7 µM; activity, negative = inhibition: at the top concentration.
How it was run: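 Read-out: fluorescence polarization of Alexa 594-labeled tau (0.24 uM), 555 nm excitation, 632 nm emission. Mixtures held 15 uM unlabeled K18 P301L, compound and 20 uM heparin, pH 7 acetate buffer, incubated 6 hr at 37 C.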
Further: nearly all actives have a fitted effect of over 55% in size.
On the % scale 0 is the no-effect control and ±100 the full control effect; potency means the concentration at half of the fitted maximal effect; tags describe the fitted curve by direction and shape.

UniProt P10636, sequence (P10636 whole entry, looked up): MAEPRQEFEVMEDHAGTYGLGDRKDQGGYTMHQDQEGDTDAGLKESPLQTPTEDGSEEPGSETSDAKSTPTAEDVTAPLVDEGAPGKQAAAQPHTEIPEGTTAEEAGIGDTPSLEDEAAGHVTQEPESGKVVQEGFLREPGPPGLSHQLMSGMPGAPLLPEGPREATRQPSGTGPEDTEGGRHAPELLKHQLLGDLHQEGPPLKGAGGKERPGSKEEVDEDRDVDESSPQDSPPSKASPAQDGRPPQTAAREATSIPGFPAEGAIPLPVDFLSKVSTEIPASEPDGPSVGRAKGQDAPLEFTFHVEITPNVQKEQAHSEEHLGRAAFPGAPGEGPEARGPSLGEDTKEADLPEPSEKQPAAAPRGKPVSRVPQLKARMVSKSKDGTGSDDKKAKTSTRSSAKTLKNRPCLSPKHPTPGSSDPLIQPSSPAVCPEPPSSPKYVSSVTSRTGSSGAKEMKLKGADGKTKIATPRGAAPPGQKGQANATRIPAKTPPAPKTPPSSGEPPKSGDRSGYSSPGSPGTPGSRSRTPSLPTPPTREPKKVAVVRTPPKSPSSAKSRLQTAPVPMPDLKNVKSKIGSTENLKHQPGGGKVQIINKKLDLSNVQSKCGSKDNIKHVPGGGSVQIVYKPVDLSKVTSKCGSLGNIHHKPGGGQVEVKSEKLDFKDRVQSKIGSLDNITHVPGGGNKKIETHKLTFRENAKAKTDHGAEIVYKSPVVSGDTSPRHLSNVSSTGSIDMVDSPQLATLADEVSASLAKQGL

Compound	Potency	activity, negative = inhibition
NCCSc1c(-c2ccc(Cl)cc2)[nH]c2ccccc12	inconclusive [activator, partial curve]	–
COc1cc(-c2csc(C)n2)ccc1O	–	inactive: -4.19%
Cc1cc(C)cc(Oc2ccccc2/C=N\O)c1	inconclusive [inhibitor, single point]	–
O=C(N/N=C/c1cc2c(cc1Br)OCO2)c1ccccn1	–	inactive: -4.4%
CCOc1ccc(NC(=O)C2CCCN(S(=O)(=O)c3ccc(Br)s3)C2)cc1 (centres undefined)	inconclusive [inhibitor, single point]	–
OC[C@@H]1[C@@H](c2ccccc2)C(c2cccc(Cl)c2)=NN1c1ccccc1	inconclusive [activator, single point]	–
CC[n+]1c(/C=C2/C=C(C)CC(C)(C)C2)sc2ccc(OC)cc21	inconclusive [inhibitor, single point]	–
CC1(C)CC[C@]2(C(=O)O)CC[C@]3(C)C(=CCC4[C@@]5(C)CC[C@H](O)C(C)(C)C5[C@H](O)C[C@]43C)C2C1 (some centres undefined)	–	inactive: 2.35%
Cc1noc(C)c1CS(=O)(=O)c1ccc([N+](=O)[O-])cc1	–	inactive: 4.65%
COc1ccc(N2C3=C(CC4=C2CC(C)(C)CC4=O)C(=O)CC(C)(C)C3)cc1	inconclusive [inhibitor, single point]	–
O=C(Nc1cccc(C(F)(F)F)c1)c1ccc(F)c(S(=O)(=O)N2CCc3ccccc3C2)c1	inconclusive [inhibitor, partial curve]	–
CN1Cc2c(N3CCOCC3)nc(SCCC#N)c(C#N)c2CC1(C)C	inconclusive [inhibitor, single point]	–
CCN(CC)C(=S)Nc1ccc(C(=O)OC)cc1	inconclusive [activator, full curve, poor fit]	–
CCOc1ccc(-c2nnc(NC3=NCCCCC3)o2)cc1	–	inactive: 4.04%
CCOC(=O)c1c(NC(=O)CSc2nc3c(c(=O)n(C)c(=O)n3C)n2C(C)C)sc(C)c1C	–	inactive: -2.69%
C[C@@H]1OC(OC2CC[C@@]3(C)C(CC[C@@]4(C)C3CC=C3C5CC(C)(C)CC[C@]5(C(=O)OC5OCC(O)[C@@H](O)[C@@H]5OC5O[C@@H](C)[C@H](O[C@H]6OC(CO)C(O)C(O)C6O)C(O)C5O)C(O)C[C@@]34C)C2(C)C)C(O)C(O)[C@H]1OC1OCC(O)C(O)[C@H]1O (some centres undefined)	inconclusive [inhibitor, single point]	–
COc1ccc2[nH]c3c(N4CCc5ccccc5C4)ncnc3c2c1	inconclusive [activator, single point]	–
Cc1ccc(NC(=S)NCCc2ccc(S(N)(=O)=O)cc2)cc1C	–	inactive: 2.04%
O=C(CN1C(=O)S/C(=C\c2ccc(O)cc2)C1=O)c1ccccc1	inconclusive [inhibitor, single point]	–
C[n+]1cccc2c(Br)ccc([O-])c21	inconclusive [inhibitor, partial curve]	–
O=C(O)C1Nc2c(O)cc(Cl)c([N+](=O)[O-])c2C2C=CCC12 (centres undefined)	active: 14.1 µM	–
CCCCc1ccc(NC(=S)NCCN2CCOCC2)cc1	–	inactive: 1.47%
CCOc1ccc(Cn2nnc(C(=O)Nc3cccc(SC)c3)c2N)cc1	inconclusive [inhibitor, full curve]	–

Compound	Potency	activity, negative = inhibition
O=C(Nc1cccc(S(=O)(=O)Nc2ccc(Cl)cc2)c1)c1cc2c(s1)CCCC2	active: 14.1 µM	–
Cc1ccc(CN2C(=O)N(c3ccc(F)cc3)C(=O)C2CC(=O)Nc2ccc(Cl)cc2)cc1 (centres undefined)	inconclusive [inhibitor, partial curve]	–
CC1(C)NC(=O)N(CCOCCOc2ccc3ccccc3c2Br)C1=O	–	inactive: 11.4%
COc1ccc(Cl)cc1NC(=O)Cn1c(=O)n(Cc2cccs2)c(=O)c2cccnc21	inconclusive [inhibitor, single point]	–
O=C1NN(c2ccccc2)C(=O)/C1=C\c1cccn1-c1ccc(Cl)c([N+](=O)[O-])c1	–	inactive: 10.8%
Cc1ccc(O)c(N=Nc2ccc(S(=O)(=O)N3CCOCC3)cc2)c1	inconclusive [activator, single point]	–
CC(C)(C)C(=O)NC(c1ccc(Cl)cc1)[C@]1(C)C[C@H]1C1CCCCC1 (some centres undefined)	–	inactive: 5.44%
CCSc1nc(C2CC2)cc(-c2cccs2)c1C#N	inconclusive [inhibitor, partial curve, poor fit]	–
Cc1nn(CC(=O)NCc2ccc(N(C)C)cc2)c(=O)c2c(C)n(-c3ccc(Cl)cc3)nc12	inconclusive [activator, single point]	–
Cc1nc2ccc(S(=O)(=O)N(CC(=O)Nc3cccc(Cl)c3)Cc3ccccc3)cc2s1	inconclusive [inhibitor, full curve, poor fit]	–
CCOC(=O)c1c(Nc2ccc(F)cc2)nnc(-c2ccccc2)c1-c1ccccc1	–	inactive: -1.68%
Cc1cccc(Oc2cc(NC(=O)c3ccccc3)cc([N+](=O)[O-])c2)c1	–	inactive: -9.33%
COc1ccc(-c2nc(SCC(=O)N3CCN(c4ccc(F)cc4)CC3)n[nH]2)cc1	inconclusive [inhibitor, single point]	–
Nc1c(NCCN2CCOCC2)c2ccccc2oc1=O	inconclusive [inhibitor, partial curve, poor fit]	–
CC1(C)SC(=S)N(/N=C/c2cccnc2)C1N(O)C(=O)Nc1ccccc1 (centres undefined)	–	inactive: 2.09%
O=C(CCc1ccccc1)Nc1cc2c(cc1Cl)OCCO2	–	inactive: -2.58%
COc1c(N)c2ccccc2[nH]c1=O	–	inactive: -5.61%
O=C(Cn1cc(S(=O)(=O)N2CCCC2)c(S(=O)(=O)N2CCCC2)c1)Nc1ccccc1	inconclusive [inhibitor, single point]	–
CCOC(=O)c1ccc(N2C(=O)c3n[nH]c(-c4ccco4)c3C2c2ccc(OCC)cc2)cc1 (centres undefined)	inconclusive [inhibitor, partial curve, poor fit]	–
c1ccc(Oc2cccc(CN3CCCCC3)c2)cc1	–	inactive: 3.15%
COc1ccccc1N1CCN(CC(=O)Nc2sccc2C#N)CC1	inconclusive [activator, single point]	–
Cc1cc(C)nc(N=Nc2c(O)n(Cc3ccc(Cl)cc3)c3ccccc23)n1	inconclusive [activator, partial curve]	–
CCN(CC)c1ccc2cc(C=O)c(=O)oc2c1	–	inactive: 5.07%

Compound	Potency	activity, negative = inhibition
COC(=O)N/N=C/c1ccc(-c2cc(Cl)cc(Cl)c2)o1	–	inactive: 10.5%
CCNc1ncnc2c1nnn2C	–	inactive: -4.43%
O=C(CSC1=Nc2ccccc2N=C(c2ccc(F)cc2)C1)Nc1cccc(C(F)(F)F)c1	inconclusive [inhibitor, single point]	–
COc1ccc2c(c1)c(C(O)CN1CCN(Cc3ccc4c(c3)OCO4)CC1)c(C)n2C (centres undefined)	inconclusive [inhibitor, partial curve]	–
CCOC(=O)C1=C(C)N=c2s/c(=C\c3ccncc3)c(=O)n2C1c1ccc2c(c1)OCO2 (centres undefined)	inconclusive [inhibitor, single point]	–
CC(C)=NNc1nc2c(c(=O)n(C)c(=O)n2C)n1C	–	inactive: -8.76%
CC1(OC(=O)CCc2ccccc2)C(=O)C=C2C=C(c3ccc(C#N)cc3)N(CCN3CCOCC3)C=C2C1=O (centres undefined)	inconclusive [inhibitor, partial curve]	–
CCc1cccc2c(C(=O)CSc3nncn3-c3ccc(OC)cc3)c[nH]c12	–	inactive: -3.34%
CCC(=O)c1ccccc1OCCCn1cncn1	–	inactive: 5.65%
O=c1cc(N2CCc3ccccc32)[nH]c(=O)n1-c1ccc(Br)cc1	inconclusive [inhibitor, partial curve]	–
Cc1ccc(NC(=S)Nc2cc(-c3ccccc3)[nH]n2)cc1Cl	inconclusive [inhibitor, partial curve]	–
COc1ccc(NC(=O)CSc2nc3ccccc3nc2N2CCC(C)CC2)cc1	–	inactive: -10.9%
COC(=O)[C@@H]1C[C@@]2(O)[C@@H](O)[C@@H](O)[C@@H](O)C[C@H]2N1Cc1ccc(-c2ccccc2)cc1	inconclusive [inhibitor, single point]	–
COc1ccccc1/C=C/C=N/NC(=O)c1cccs1	inconclusive [inhibitor, partial curve, poor fit]	–
CCCCN(CC)CCCNC(=O)c1cc2c(=O)[nH]c3ccccc3c2n1C	inconclusive [inhibitor, partial curve]	–
O=C(Nc1ccc(S(=O)(=O)NCCc2ccccc2)cc1)c1ccc(Br)o1	inconclusive [inhibitor, partial curve]	–
O=C1c2sc3nc4ccccc4n3c2C(=O)N1c1ccccc1Cl	inconclusive [inhibitor, partial curve, poor fit]	–
COc1ccc(O)c(/C=c2/sc3nc4cc(C)c(C)cc4n3c2=O)c1	inconclusive [inhibitor, full curve, poor fit]	–
COc1ccc2sc(N(Cc3cccnc3)C(=O)c3ccc4c(c3)OCCO4)nc2c1	–	inactive: -0.475%
CCOC(=O)c1ccc(N2C(=O)c3n[nH]c(-c4ccco4)c3C2c2ccc(C)cc2)cc1 (centres undefined)	inconclusive [inhibitor, full curve]	–
Cc1cc(C)cc(NC(=O)CCS(=O)(=O)c2cccc3nsnc23)c1	inconclusive [inhibitor, full curve, poor fit]	–
COc1ccc(CC(=O)N2CCc3cc(OC)c(OC)cc3C2COc2cc(C)cc(C)c2)cc1OC (centres undefined)	–	inactive: 6.59%
CS(=O)(=O)N(CC(=O)Nc1ccc(S(=O)(=O)N2CCCC2)cc1)c1cccc(F)c1	inconclusive [inhibitor, partial curve]	–
